63 cell lines from the supplement of paper PMC4967469 can be followed below.

Lines with a small IC50 respond at low doses; a limit (>, <) means that the fit lies beyond the doses tested. AUC sums up the same curve from the lowest dose to the 256-fold higher top dose; the more sensitive the line, the further below 1. The top dose, if marked as inferred, comes from the curve model; the source does not state it. Where an entry number is given, a second screen of the drug exists; the two often differ. Bounds are passed on as bounds.

Compound in one test: NC(=O)[C@@H](CCC(F)(F)F)N(Cc1ccc(-c2ncon2)cc1F)S(=O)(=O)c1ccc(Cl)cc1 [BMS-708163]
Put plainly: Viability of human cancer cell lines after 72 h of drug (GDSC screen). The following applies: screen: GDSC drug entry 205; top dose inferred. How it is done:
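Human cancer cell lines in 384-well plates, medium with 10% serum, drug for 72 h over a 256-fold dose range (nine 2-fold or five 4-fold steps up to the top dose). Adherent lines were fixed and stained with the nucleic acid dye Syto60, suspension lines read with resazurin; signal relative to control wells, capped at 0 and 100%. One two-parameter sigmoid per drug and line, fitted in a mixed model over all curves with the slope shared within a line.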
By IC50 is commonly meant the concentration at which inhibition is half-maximal. As to “KP-N-YS (neuroblastoma, adherent, top dose 10.24 µM)”, the AUC stood at 0.965 and the half-maximal inhibitory concentration (IC50) is more than 10.2 µM.

In the case of “KS-1 (glioma, adherent, top dose 10.24 µM)”, the AUC turned out to be 0.955 and the IC50 was more than 10.2 µM.

As to “KU812 (chronic myeloid leukaemia, suspension, top dose 10.24 µM)”, the AUC was determined as 0.98 and the IC50 was more than 10.2 µM.

For “KU-19-19 (bladder, adherent, top dose 10.24 µM)”, the AUC amounted to 0.987 and the IC50 is more than 10.2 µM.

Take “KURAMOCHI (ovary, adherent, top dose 10.24 µM)”: the AUC was 0.966 and the IC50 is more than 10.2 µM.

As to “KY821 (leukaemia, suspension, top dose 10.24 µM)”, the AUC was 0.991 and the IC50 is more than 10.2 µM.

With “KYAE-1 (oesophagus, suspension, top dose 10.24 µM)”, the AUC was 0.976 and the IC50 was more than 10.2 µM.

As for “KYM-1 (rhabdomyosarcoma, adherent, top dose 10.24 µM)”, the AUC was determined as 0.99 and the IC50 is more than 10.2 µM.

Take “KYSE-50 (oesophagus, adherent, top dose 10.24 µM)”: the AUC is 0.967 and the IC50 is more than 10.2 µM.

Consider “KYSE-70 (oesophagus, adherent, top dose 10.24 µM)”, for which the AUC came out at 0.987 and the IC50 was more than 10.2 µM.

With “KYSE-140 (oesophagus, adherent, top dose 10.24 µM)”, the AUC amounted to 0.972 and the IC50 is more than 10.2 µM.

As to “KYSE-150 (oesophagus, adherent, top dose 10.24 µM)”, the AUC turned out to be 0.989 and the IC50 is more than 10.2 µM.

As for “KYSE-180 (oesophagus, adherent, top dose 10.24 µM)”, the AUC was determined as 0.986 and the IC50 was more than 10.2 µM.

Take “KYSE-220 (oesophagus, adherent, top dose 10.24 µM)”: the AUC is 0.965 and the IC50 was more than 10.2 µM.

In the case of “KYSE-270 (oesophagus, adherent, top dose 10.24 µM)”, the AUC was determined as 0.988 and the IC50 was more than 10.2 µM.

For “KYSE-410 (oesophagus, adherent, top dose 10.24 µM)”, the AUC was determined as 0.985 and the IC50 is more than 10.2 µM.

Take “KYSE-450 (oesophagus, adherent, top dose 10.24 µM)”: the AUC turned out to be 0.977 and the IC50 is more than 10.2 µM.

Turning to “KYSE-510 (oesophagus, adherent, top dose 10.24 µM)”, the AUC turned out to be 0.992 and the IC50 was more than 10.2 µM.

Take “KYSE-520 (oesophagus, adherent, top dose 10.24 µM)”: the AUC turned out to be 0.982 and the IC50 was more than 10.2 µM.

In the case of “L-363 (myeloma, suspension, top dose 10.24 µM)”, the AUC was determined as 0.982 and the IC50 was more than 10.2 µM.

Turning to “L-428 (Hodgkin lymphoma, suspension, top dose 10.24 µM)”, the AUC was determined as 0.99 and the IC50 was more than 10.2 µM.

Turning to “L-540 (Hodgkin lymphoma, suspension, top dose 10.24 µM)”, the AUC turned out to be 0.99 and the IC50 was more than 10.2 µM.

In the case of “L-1236 (Hodgkin lymphoma, suspension, top dose 10.24 µM)”, the AUC is 0.992 and the IC50 is more than 10.2 µM.

Take “LAMA-84 (chronic myeloid leukaemia, suspension, top dose 10.24 µM)”: the AUC amounted to 0.987 and the IC50 was more than 10.2 µM.

As to “LAN-6 (neuroblastoma, adherent, top dose 10.24 µM)”, the AUC worked out at 0.982 and the IC50 is more than 10.2 µM.

For the cell line “LB373-MEL-D (melanoma, adherent, top dose 10.24 µM)”, the AUC was 0.99 and the IC50 is more than 10.2 µM.

As for “LB771-HNC (head and neck, adherent, top dose 10.24 µM)”, the AUC came out at 0.977 and the IC50 was more than 10.2 µM.

Consider “LB831-BLC (bladder, adherent, top dose 10.24 µM)”, for which the AUC is 0.987 and the IC50 was more than 10.2 µM.

Consider “LB996-RCC (kidney, adherent, top dose 10.24 µM)”, for which the AUC came to 0.983 and the IC50 is more than 10.2 µM.

For the cell line “LB1047-RCC (kidney, adherent, top dose 10.24 µM)”, the AUC came out at 0.983 and the IC50 was more than 10.2 µM.

Take “LB2241-RCC (kidney, adherent, top dose 10.24 µM)”: the AUC is 0.983 and the IC50 is more than 10.2 µM.

As to “LB2518-MEL (melanoma, adherent, top dose 10.24 µM)”, the AUC was 0.986 and the IC50 is more than 10.2 µM.

Turning to “LC4-1 (lymphoblastic leukaemia, suspension, top dose 10.24 µM)”, the AUC is 0.976 and the IC50 is more than 10.2 µM.

Consider “LC-1-sq (lung squamous cell carcinoma, adherent, top dose 10.24 µM)”, for which the AUC was 0.984 and the IC50 was more than 10.2 µM.

As to “LC-2-ad (lung adenocarcinoma, adherent, top dose 10.24 µM)”, the AUC stood at 0.985 and the IC50 is more than 10.2 µM.

Turning to “LCLC-97TM1 (large cell lung carcinoma, adherent, top dose 10.24 µM)”, the AUC came out at 0.908 and the IC50 is more than 10.2 µM.

Consider “LCLC-103H (large cell lung carcinoma, adherent, top dose 10.24 µM)”, for which the AUC came out at 0.991 and the IC50 is more than 10.2 µM.

Consider “LK-2 (lung squamous cell carcinoma, adherent, top dose 10.24 µM)”, for which the AUC was determined as 0.989 and the half-maximal inhibitory concentration (IC50) is more than 10.2 µM.

Take “LN-18 (glioma, adherent, top dose 10.24 µM)”: the AUC came out at 0.994 and the IC50 is more than 10.2 µM.

For the cell line “LN-229 (glioma, adherent, top dose 10.24 µM)”, the AUC came out at 0.988 and the IC50 is more than 10.2 µM.

Consider “LN-405 (glioma, adherent, top dose 10.24 µM)”, for which the AUC is 0.984 and the IC50 is more than 10.2 µM.

In the case of “LNCaP-Clone-FGC (prostate, adherent, top dose 10.24 µM)”, the AUC turned out to be 0.979 and the IC50 is more than 10.2 µM.

In the case of “LNZTA3WT4 (glioma, adherent, top dose 10.24 µM)”, the AUC was 0.989 and the IC50 was more than 10.2 µM.

With “LOU-NH91 (lung squamous cell carcinoma, adherent, top dose 10.24 µM)”, the AUC is 0.984 and the IC50 was more than 10.2 µM.

As for “LOUCY (T-cell lymphoblastic leukaemia, suspension, top dose 2.56 µM)”, the AUC was 0.987 and the IC50 is more than 2.56 µM.

On to “LOXIMVI (melanoma, semi-adherent, top dose 10.24 µM)”, for which the AUC was determined as 0.99 and the IC50 is more than 10.2 µM.

With “LP-1 (myeloma, suspension, top dose 10.24 µM)”, the AUC stood at 0.941 and the concentration for half-maximal inhibition (IC50) was more than 10.2 µM.

With “LS-123 (large intestine, adherent, top dose 10.24 µM)”, the AUC was found to be 0.965 and the IC50 is more than 10.2 µM.

For the cell line “LS-180 (large intestine, adherent, top dose 10.24 µM)”, the AUC is 0.971 and the IC50 is more than 10.2 µM.

Turning to “LS-411N (large intestine, adherent, top dose 2.56 µM)”, the AUC turned out to be 0.981 and the IC50 was more than 2.56 µM.

With “LS-513 (large intestine, adherent, top dose 2.56 µM)”, the AUC worked out at 0.986 and the IC50 was more than 2.56 µM.

As to “LS-1034 (large intestine, adherent, top dose 10.24 µM)”, the AUC is 0.973 and the IC50 was more than 10.2 µM.

With “LU-65 (large cell lung carcinoma, suspension, top dose 10.24 µM)”, the AUC is 0.985 and the concentration for half-maximal inhibition (IC50) is more than 10.2 µM.

With “LU-99A (large cell lung carcinoma, adherent, top dose 10.24 µM)”, the AUC was determined as 0.987 and the IC50 is more than 10.2 µM.

As for “LU-134-A (small cell lung carcinoma, suspension, top dose 10.24 µM)”, the AUC turned out to be 0.984 and the IC50 is more than 10.2 µM.

Take “LU-135 (small cell lung carcinoma, suspension, top dose 10.24 µM)”: the AUC stood at 0.989 and the half-inhibitory concentration (IC50) is more than 10.2 µM.

With “LU-139 (small cell lung carcinoma, suspension, top dose 10.24 µM)”, the AUC is 0.97 and the 50% inhibitory concentration (IC50) was more than 10.2 µM.

In the case of “LU-165 (small cell lung carcinoma, suspension, top dose 10.24 µM)”, the AUC was 0.988 and the IC50 was more than 10.2 µM.

In the case of “LXF-289 (lung adenocarcinoma, adherent, top dose 10.24 µM)”, the AUC was determined as 0.987 and the IC50 is more than 10.2 µM.

Turning to “LoVo (large intestine, adherent, top dose 10.24 µM)”, the AUC turned out to be 0.987 and the IC50 is more than 10.2 µM.

As to “M14 (melanoma, adherent, top dose 10.24 µM)”, the AUC is 0.987 and the IC50 is more than 10.2 µM.

The test is the same for the next values; noted with them: top dose 5 µM; screen: GDSC drug entry 1072; top dose inferred.
As to KYAE-1 (oesophagus, suspension), the AUC amounted to 0.981 and the IC50 was more than 5 µM.

For M059J (glioma, adherent), the AUC came to 0.965 and the IC50 was more than 5 µM.
